Measured values published in patent publication US10299477B2 (priority 2015, dated 2019).

Each compound was assayed on Colletotrichum orbiculare. Settings: 250 ppm, sprayed 2.5 ml/pot before inoculation; evaluated 6-10 days after inoculation.

SMILES	Test H (control value class, anthracnose on cucumber)
COc1cc(F)c(-c2c(-c3cc(F)c(F)cc3F)cc(Cl)c(=O)n2C)c(F)c1 [Compound 655]	H (H shows more than 50% of control values)
COc1cc(F)c(-c2c(-c3ccccc3F)cc(Cl)c(=O)n2C)c(F)c1 [Compound 570]	H (H shows more than 50% of control values)
COc1cc(F)c(-c2c(-c3cccc(F)c3F)ccc(=O)n2C)c(F)c1 [Compound 561]	H (H shows more than 50% of control values)
CCn1c(-c2c(F)cc(F)cc2F)c(-c2cc(OC)cc(F)c2Cl)cc(Cl)c1=O [Compound 617]	H (H shows more than 50% of control values)
Cn1c(-c2c(F)cc(Cl)cc2F)c(-c2cc(F)ccc2Cl)ccc1=O [Compound 604]	H (H shows more than 50% of control values)
CCn1c(-c2c(F)cc(OC)cc2F)c(-c2cc(OC)cc(OC)c2Cl)ccc1=O [Compound 716]	H (H shows more than 50% of control values)
CCOc1cc(F)c(-c2c(-c3cccc(F)c3C)ccc(=O)n2CC)c(F)c1 [Compound 698]	H (H shows more than 50% of control values)
CCn1c(-c2c(F)cc(OC)cc2F)c(-c2cccc(F)c2C)ccc1=O [Compound 697]	H (H shows more than 50% of control values)
CCn1c(-c2c(F)cc(F)cc2F)c(-c2ccc(F)cc2Cl)cc(Br)c1=O [Compound 578]	H (H shows more than 50% of control values)
CCn1c(-c2c(F)cc(F)cc2F)c(-c2cc(F)cc(F)c2Cl)cc(C)c1=O [Compound 689]	H (H shows more than 50% of control values)
CCOc1cc(F)c(-c2c(-c3ccccc3Cl)cc(C)c(=O)n2CC)c(F)c1 [Compound 702]	H (H shows more than 50% of control values)

Same assay, conditions: in vivo

SMILES	Test H (control value class)
CCn1c(-c2c(F)cc(OC)cc2F)c(-c2cc(F)cc(F)c2Br)ccc1=O [Compound 818]	H (key: H shows more than 50% of control values; L shows 50% or less of control values)
COc1ccc(Cl)c(-c2cc(Cl)c(=O)n(CC#N)c2-c2c(F)cccc2F)c1 [Compound 463]	H (key: H shows more than 50% of control values; L shows 50% or less of control values)
O=c1ccc(-c2ccc(Cl)cc2F)c(-c2c(F)cccc2F)n1CC(F)F [Compound 428]	H (key: H shows more than 50% of control values; L shows 50% or less of control values)
O=c1c(Cl)cc(-c2cccc(Cl)c2F)c(-c2c(F)cccc2F)n1CC(F)F [Compound 495]	L (key: H shows more than 50% of control values; L shows 50% or less of control values)
CCn1c(-c2c(F)cc(F)cc2F)c(-c2cc(F)ccc2F)cc(Cl)c1=O [Compound 425]	H (key: H shows more than 50% of control values; L shows 50% or less of control values)
Cn1c(-c2c(F)cccc2F)c(-c2cc(F)ccc2F)ccc1=O [Compound 483]	H (key: H shows more than 50% of control values; L shows 50% or less of control values)
CCn1c(-c2c(F)cc(F)cc2F)c(-c2ccccc2)cc(Br)c1=O [Compound 774]	H (key: H shows more than 50% of control values; L shows 50% or less of control values)
CCn1c(-c2c(F)cc(OC)cc2F)c(-c2cc(OC)ccc2Cl)cc(Cl)c1=O [Compound 772]	H (key: H shows more than 50% of control values; L shows 50% or less of control values)
Cn1c(-c2c(F)cccc2F)c(-c2cccc(F)c2Cl)ccc1=O [Compound 508]	H (key: H shows more than 50% of control values; L shows 50% or less of control values)
CCn1c(-c2c(F)cc(F)cc2F)c(-c2cc(OC)ccc2Cl)cc(Cl)c1=O [Compound 404]	H (key: H shows more than 50% of control values; L shows 50% or less of control values)
